In PubChem BioAssay AID504832 (National Center for Advancing Translational Sciences (NCATS), 2011):
Out of some 310,000 compounds screened, about 18,000 (5.8%) were called active. The shares of active, inactive and inconclusive entries below differ from those in the screen. Calls come from the whole dose curve; as a rule, active = well fitted inhibition curve with a large enough effect; inconclusive = small, poorly fitted or top-dose-only effect, or another doubt; inactive = no such curve, though single readings can be large or run the other way. Potencies of inconclusive entries are left out as doubtful fits.

Test: Primary qHTS for delayed death inhibitors of the malarial parasite plastid, 48 hour incubation
Conditions: P. falciparum luciferase growth in erythrocytes; series mostly up to 28.7 µM
Procedure, shortened: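 Read-out is firefly luciferase luminescence from an integrated reporter in P. falciparum, so falling signal marks reduced parasite growth. Infected erythrocytes were at 2% hematocrit and 0.1% parasitemia (final) in Albumax-supplemented RPMI 1640.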
Potency is the fitted concentration of half-maximal effect; tags give direction and shape of the fitted curve.

Row | SMILES | Potency
1 | CCn1cc(S(=O)(=O)CC(=O)Nc2ccc(OC)cc2)c2ccccc21 | inactive
2 | COc1ccc(N/C=C\C(=O)c2ccc3c(c2)OCO3)cc1OC | inactive
3 | CCOCCCNC(=S)N1C2CCC1CC(NC(=O)NC13CC4CC(CC(C4)C1)C3)C2 (centres undefined) | active: 4.65 µM
4 | Cc1ccccc1OCCSCc1nc2ccccc2[nH]1 | inconclusive [inhibitor, single point]
5 | c1ccc(Oc2ccc(-c3ccnc4nc(N5CCN(c6ccccc6)CC5)nn34)cc2)cc1 | inconclusive [inhibitor, single point]
6 | Cc1oc(-c2ccc(Cl)cc2)nc1CS(=O)CC(=O)NC(C)c1ccccc1 (centres undefined) | inactive
7 | CCCCCC(=O)c1ccc(O)cc1O | inactive
8 | COc1ccc(OCC(=O)NNC(=O)c2cccnc2)cc1 | inactive
9 | CCOC(=O)c1sc(Nc2nc(C)cc(C)n2)nc1C | inconclusive [inhibitor, single point]
10 | Cc1ccc(C(=O)NCCCc2ccccc2)s1 | inconclusive [inhibitor, single point]
11 | CC1CN(c2ccc([N+](=O)[O-])cc2F)CCN1C(=O)c1ccco1 (centres undefined) | inactive
12 | CCOc1ccccc1NC(=O)CCc1nnc2ccc(N3CCC(C)CC3)nn12 | inconclusive [inhibitor, partial curve]
13 | CCOC(=O)c1[nH]c(C)c(C(=O)N2CCN(C(=O)OCC)CC2)c1CC | inconclusive [inhibitor, partial curve, poor fit]
14 | N=c1n(CCO)c2ccccc2n1Cc1ccccc1Cl | inactive
15 | N#CCCn1cc(C(=O)Nc2ccc([N+](=O)[O-])cc2)c(-c2ccc3c(c2)OCCO3)n1 | inconclusive [inhibitor, partial curve, poor fit]
16 | O=C(CSc1ccc2nnc(CCNC(=O)c3ccccc3)n2n1)Nc1ccccc1 | inconclusive [inhibitor, single point]
17 | O=C1N=C(N2CCOCC2)S/C1=C/c1cccs1 | inactive
18 | CN(C)CC1CSCCC1(O)c1ccccc1Cl (centres undefined) | inconclusive [inhibitor, single point]
19 | O=C(Nc1ccc(F)cc1)N(Cc1cccs1)Cc1cc2cc3c(cc2[nH]c1=O)OCO3 | inconclusive [inhibitor, single point]
20 | CCOc1ccc(CN2CCN(Cc3[nH]c4ccccc4c3C)CC2CCO)cc1 (centres undefined) | inconclusive [inhibitor, partial curve]
21 | Cc1nn(C(C)C(=O)NCc2ccc(Cl)cc2)c(=O)c2cc3occc3n12 (centres undefined) | inactive
22 | O=C1C(Cl)=C(N2CCCCCC2)C(=O)N1c1ccc(Cl)cc1 | inconclusive [inhibitor, single point]
23 | O=C(c1csc2c1CCCC2)N1CCN(c2ccc(F)cc2)CC1 | inconclusive [inhibitor, single point]

Row | SMILES | Potency
24 | CCOc1ccc(/C=N/NC(=O)CSc2n[nH]c(=O)[nH]c2=O)cc1OC | inconclusive [inhibitor, full curve, poor fit]
25 | O=C(Cc1ccc(-c2ccccc2)cc1)N1CCOCC1 | inactive
26 | O=C(Nc1nnc(-c2ccccc2Cl)s1)c1ccccc1F | inactive
27 | Cc1ccc(Nc2c(-c3ccc(N(C)C)cc3)nc3ncccn23)cc1 | inconclusive [inhibitor, single point]
28 | CCOC(=O)c1c(N2C(=O)CC(Sc3ccccc3C(=O)O)C2=O)sc(C)c1C (centres undefined) | active: 2.33 µM
29 | CCn1c(COc2ccc(=O)n(-c3ccccc3)n2)nnc1SCC(=O)OC | inconclusive [inhibitor, partial curve, poor fit]
30 | C/C(=N\NC(=O)c1cc2ccccc2cc1O)c1cc2ccccc2o1 | inconclusive [inhibitor, single point]
31 | CCCCCCC(=O)Oc1ccc(N2C(=O)CCC2=O)cc1 | inactive
32 | O=C(C[n+]1cc(-c2ccccc2)n2c1CCC2)Nc1nc(-c2ccc(F)cc2)cs1 | inconclusive [inhibitor, single point]
33 | CC1CCCN(C(=O)CN2CCC(c3nc4ccc(Cl)cc4[nH]3)CC2)C1 (centres undefined) | inconclusive [inhibitor, single point]
34 | COC(=O)C1C(=O)C(C(=O)/C=C/c2ccccc2)C(=O)CC1(C)C (centres undefined) | inconclusive [inhibitor, single point]
35 | O=C(NNC1=NC2(CCCC2)Cc2ccccc21)c1cccnc1 | inconclusive [inhibitor, full curve, poor fit]
36 | Cc1[nH]n(-c2ccccc2)c(=O)c1C1(C(F)(F)F)C(=O)N(c2ccc(F)cc2)C2=C1C(=O)CC(C)(C)C2 (centres undefined) | inconclusive [inhibitor, single point]
37 | Cc1ccc(C(=O)NNC(=O)c2ccc(NS(=O)(=O)c3cccs3)cc2)s1 | inconclusive [inhibitor, single point]
38 | Cc1ccc2c(c1)C1CN(C)CCC1N2C(=O)c1cccc(S(=O)(=O)N2CC(C)CC(C)C2)c1 (centres undefined) | inconclusive [inhibitor, partial curve, poor fit]
39 | Cc1cc(Cl)ccc1NC(=S)NCc1ccc(Cl)cc1 | inconclusive [inhibitor, partial curve, poor fit]
40 | CCC(=O)N1CCN(c2ccc(NC(=O)c3ccc4ccccc4c3)cc2)CC1 | inactive
41 | COC(=O)c1sccc1NC(=O)CNC(=O)c1ccccc1 | inactive
42 | CCC(C)NC(=O)CCC(=O)Nc1ccc2nc(N3CCOCC3)cc(C)c2c1 (centres undefined) | inactive
43 | CCc1ccc(NC(=O)C2CCN(S(=O)(=O)c3c(C)noc3/C=C/N(C)C)CC2)cc1 | inconclusive [inhibitor, single point]
44 | CCN(c1ccccc1)S(=O)(=O)c1ccc(Cl)c(C(=O)OCC(=O)NC(=O)C(C)C)c1 | inconclusive [inhibitor, partial curve, poor fit]
45 | COc1ccc(-c2cc(C)no2)cc1S(=O)(=O)NCc1ccc(OC(C)C)cc1 | inactive
46 | Cc1ccc2c(c1)nnn2C1CCN(S(=O)(=O)c2ccc(C(=O)N(C)C3CCCCC3)cc2)CC1 | inconclusive [inhibitor, partial curve]

Row | SMILES | Potency
47 | COc1ccc(N(CC(=O)NCCC2=CCCCC2)S(C)(=O)=O)cc1 | inactive
48 | CC(C)CN(CC(C)C)C(=O)c1cc(S(=O)(=O)N2CCCCC2)c[nH]1 | inconclusive [inhibitor, single point]
49 | COc1ccccc1CN(C(=O)c1cnccn1)C(C(=O)NC1CCCCC1)c1cc(OC)c(OC)c(OC)c1 (centres undefined) | inconclusive [inhibitor, partial curve, poor fit]
50 | CC(=O)C1=C(C)OC(N)=C(C#N)C1c1ccco1 (centres undefined) | inconclusive [inhibitor, single point]
51 | Cc1cccc(C(=O)N[C@H](C(=O)Nc2ccc(S(=O)(=O)NC3=NCCCCC3)cc2)C(C)C)c1 | inconclusive [inhibitor, single point]
52 | CCn1c(=O)c(C(=O)CN2CCc3ccccc32)c(N)n(Cc2ccccc2)c1=O | inconclusive [inhibitor, partial curve]
53 | Cc1ccc(C2C=C(c3ccc4c(c3)OCO4)Nc3ncnn32)cc1 (centres undefined) | inconclusive [inhibitor, single point]
54 | CCCCn1c(/C=N/Nc2nc3ccccc3[nH]2)nc2ccccc21 | active: 1.85 µM
55 | Cn1c(=O)c2c(nc(SCC(=O)NCc3ccc4c(c3)OCO4)n2Cc2ccc(Cl)cc2)n(C)c1=O | active: 9.28 µM
56 | COCc1c(C(=O)NCCOc2ccc(Cl)cc2)oc2ccccc12 | inconclusive [inhibitor, single point]
57 | CC1CN(S(=O)(=O)c2cccc(C(=O)NCc3ccco3)c2)CC(C)O1 (centres undefined) | inactive
58 | CCOc1cccc2sc(N(CCCN(C)C)C(=O)c3ccc(S(=O)(=O)N(C)CC4CCCO4)cc3)nc12 (centres undefined) | inactive
59 | CCCCn1c(=O)[nH]c(=O)c2c1nc(-c1ccccc1F)n2Cc1ccccc1 | inconclusive [inhibitor, single point]
60 | CC1CC(C)CN(CCCSc2ccccc2)C1 (centres undefined) | inconclusive [inhibitor, partial curve]
61 | CC(=O)c1ccc(S(=O)(=O)N2CCCC(N(C)CCc3ccccn3)C2)cc1 (centres undefined) | inactive
62 | Cc1ccc(/C=C2\SC(=S)N(CCC(=O)N3CCCCC3)C2=O)cc1 | inactive
63 | CCN1CCN(c2ncc(C(=O)Nc3c(F)cc(F)cc3Br)c3ccccc23)CC1 | inconclusive [inhibitor, single point]
64 | Cc1cc(C)nc(N2CCN(c3ccc(F)cc3)CC2)n1 | inconclusive [inhibitor, full curve, poor fit]
65 | CN(CC(=O)Nc1cccc(F)c1)C(=O)Cn1c(=O)cnc2ccccc21 | inconclusive [inhibitor, single point]
66 | CCOC(=O)C1=C(CC)NC2=C(C(=O)CCC2)C1c1ccc(OC)c(OC)c1 (centres undefined) | active: 7.38 µM
67 | CNS(=O)(=O)c1ccc(OC)c(-c2nnc3c4ccccc4c(C)nn23)c1 | inconclusive [inhibitor, single point]
68 | COc1ccc(OCCNC(=S)Nc2cccc3ccccc23)cc1 | inconclusive [inhibitor, single point]
69 | O=C(Nc1nc(-c2ccccn2)cs1)Nc1ccc(F)cc1F | active: 1.47 µM
